PubChem BioAssay AID1508623 (National Center for Advancing Translational Sciences (NCATS), 2021)
The campaign covered roughly 48,000 compounds. About 450 (0.94%) were called active. Inconclusive results (about 19%) are left out. The call rests on the fitted dose curve; in most records, active means well fitted inhibition curve with a large enough effect; inconclusive means small, poorly fitted or top-dose-only effect; inactive means no such curve, though single readings can be large or run the other way. The list shows a part of the results.

Test: Primary qHTS for Identification of Small Molecule Inhibitors of Huntingtin Promoter Activity; further: nearly all actives have a fitted effect of over 50% in size
Conditions: HEK293 HTT promoter firefly luciferase reporter (activity 0% = vehicle and -100% = no light), 24 h; series mostly up to 57.5 µM; activity change, negative = inhibition: at the top concentration
Procedure, shortened: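 HEK293 cells carrying firefly luciferase reporters were seeded at 2,500 per well in Opti-MEM and cultured for 24 h. They were then treated with compounds at up to 57.5 uM final for 24 h at 37 degrees C before Dual-Glo luminescence readout.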

Activity change, negative = inhibition, inactive:
COc1cc(NC(=O)CCc2c(C)nc3nc(-c4cc(OC)cc(OC)c4)nn3c2C)cc(OC)c1 -11.8%, CCCCN(CC)CCNC(=O)c1cc2c(-c3ccc(Cl)cc3)nn(C)c2s1 -3.52%, Cc1nc2ccccc2n1CC(O)COc1ccc(C(=O)O)cc1 (stereo unspecified) -7.4%, CCn1c(C(=O)N2CCC(C(=O)NCCc3ccccc3)CC2)cc2sccc21 -12.4%, Cc1ccc(NS(=O)(=O)c2ccc(NC(=O)N3CCCC3)cc2)cc1C -19.3%, Cc1ccc(-n2c3nc(=O)n(C)c(=O)c-3cc3c(Cl)cccc32)c(C)c1 -7.83%, COc1ccc(N2CC(NC(=O)c3ccc(S(=O)(=O)N4CCCC4)cc3)CC2=O)cc1 (stereo unspecified) -14.6%, COc1ccc(-n2nc(C(=O)N3CCN(c4ccccc4OC)CC3)c3c4ccccc4n(C)c3c2=O)cc1 -9.2%, CCOC(=O)c1ccc(NC(=O)C(CC)Sc2nc3ncccc3[nH]2)cc1 (stereo unspecified) -18%, COc1cccc(N2CC(NC(=O)/C=C\c3ccc4c(c3)OCO4)CC2=O)c1 (stereo unspecified) -25.1%, CCc1ccccc1NC(=O)CN1C(=O)CCc2cc(S(=O)(=O)N3CCCCC3)ccc21 -24.4%, Cc1ccc(CNC(=O)c2ccc(CSCc3ccc(Cl)cc3)o2)cc1 -21%, Nc1ncnc2c1ncn2[C@@H]1O[C@H](CO)[C@@H](O)[C@@H]1O 0.234%, CCOc1ccccc1C(=O)Nc1c(NC)c2ccccc2oc1=O -5.66%, O=C(NCc1cccc(F)c1)C1=Cc2cc(Br)ccc2OC1 -16.1%, O=C(Nc1cc(C(F)(F)F)ccc1Cl)c1cc2nc(-c3ccc4c(c3)OCO4)cc(C(F)(F)F)n2n1 0.597% [at 11.5 µM], Cn1c(=O)oc2cc(S(=O)(=O)N3CCCC(C(=O)Nc4ccc(Br)cc4F)C3)ccc21 (stereo unspecified) -17.1%, COc1ccc(N(CC(=O)NCc2ccc(F)cc2)S(=O)(=O)c2c(C)n[nH]c2C)cc1 -4.83%, COc1ccc(OCCCn2c(=O)oc3ccc(C)cc32)cc1 -15.2%, O=C(CSc1nc2c(oc3ccccc32)c(=O)n1Cc1ccco1)Nc1cccc(Cl)c1 -7%, Cc1cn(C)c(CC(=O)Nc2cccc(Cl)c2C)c1C(=O)O -6.29%, Cc1cc(C)cc(NC(=O)CN2C(=O)c3ccccc3Sc3ccc(C(=O)N4CCOCC4)cc32)c1 -19.9%, COc1cc2c(cc1NS(=O)(=O)c1cccc(C#N)c1)n(C)c(=O)n2C -13.4%, Cc1ccc(C)c(Cn2nnc(C(=O)NCc3ccc(Cl)cc3Cl)c2N)c1 -7.16%, C=CCc1cccc2cc(C(=O)Nc3cccc(Cl)c3)c(=O)oc12 17.9%, Cc1cccc(C(=O)NCCc2sc(-c3ccccc3)nc2C)c1 -19.2%, CCOC(=O)c1sc2ccccc2c1S(=O)(=O)Nc1cccc(C(F)(F)F)c1 0%, Cc1coc2c1c(C)cc1oc(=O)cc(C)c12 -0.475%, Cc1oc(-c2cccc(Cl)c2)nc1CN1CCCC(C(=O)NCc2ccc(F)cc2)C1 (stereo unspecified) 0.958%, COc1ccc(-c2nnc(SCC(=O)Oc3c(C)cccc3C)o2)cc1OC 2.15%, CCCCN(C)C(=O)C(Cc1ccccc1)NS(=O)(=O)c1ccc2c(c1)c(=O)n(C)c(=O)n2C (stereo unspecified) -6.76%, COC(=O)c1cc(NC(=O)Cn2nc(C)n3cccc3c2=O)cc(C(=O)OC)c1 11.6%, Cc1ccc(-c2c(C(=O)NCc3ccccc3)oc(=O)c3ccccc23)cc1 -12.1%, CCOC(=O)C1=C(CS(=O)(=O)c2ccc(Br)cc2)NC(=O)NC1c1ccccc1 (stereo unspecified) -19.2%, CCc1cccc(C)c1NC(=O)c1cc(C)nc2c1c(C)nn2-c1cccc(Cl)c1C -8.71%, Cc1cc(OC(=O)c2cc(-c3ccc4c(c3)OCCO4)on2)ccc1Cl -1.22%, COc1ccc2c(c1)-c1nc(NC(=O)c3cc(Cl)ccc3OC)sc1CC2 -4.7%, COc1ccccc1CNC(=O)CCn1c(=O)c2ccccc2n(CC(=O)Nc2ccc(C)cc2C)c1=O -4.74%, CN1c2ccccc2-c2nc(SCC(=O)Nc3ccccc3C(F)(F)F)ncc2S1(=O)=O -33.8%, Cc1ccc(CSc2nc3ccc(NC(=O)C(C)C)cc3s2)cc1 -15.3%, CCN(Cc1ccccc1)C(=O)Cn1c(=O)n(Cc2ccccc2)c(=O)c2c1c1cc(OC)ccc1n2C -2.75%, COc1ccc(C(CC(=O)Nc2ccc(C)c(C)c2)N2Cc3ccccc3C2=O)cc1OC (stereo unspecified) -22.7%, CC(C)c1ccc(S(=O)(=O)c2nnn3c2nc(NC2CCCC2)c2sccc23)cc1 -8%, Cc1ccc2c(=O)cc(CSc3ccccc3)[nH]c2c1C 17.7%, Cc1nc(CC(=O)Nc2cccc(C)c2C)cs1 -2.83%, COc1ccc(C(=O)NCc2ccc3c(c2)CCN3C(=O)c2ccncc2)cc1 -28.1%, CCCCCCNC(=O)c1c[nH]c2ccc(S(=O)(=O)N(C)c3ccc(C(C)C)cc3)cc2c1=O -0.856%, N#C/C(=C/c1ccccc1Cl)c1nc2ccccc2c(=O)[nH]1 -2.33%, Cc1ccc(Cl)cc1N(C)C(=O)c1cc2c(Cl)nc3ccccc3c2s1 3.43%, O=C(C1CCC(Cn2c(=O)c3sccc3n(Cc3cccc(F)c3)c2=O)CC1)N1CCOCC1 (stereo unspecified) -17.5%, Cc1cc2nn(-c3ccc(F)cc3)nc2cc1NC(=O)c1cccc([N+](=O)[O-])c1C 30.3%, COc1cccc(OC(=O)CSc2nnc(-c3cccs3)o2)c1 1.65%, CC(=O)Nc1ccc(Nc2nc3c(S(=O)(=O)c4cc(C)ccc4C)nnn3c3ccsc23)cc1 -2.63%, Cc1[nH]cnc1CN1CCc2c(c3ccccc3n2C)C1=O -4.6%, CC1(C)OC[C@@H](COC(=O)CCc2ccc(OC[C@@H](O)CNCCNC(=O)N3CCOCC3)cc2)O1 9.79%, COc1ccccc1NC(=O)CSc1ccc(-c2ccccn2)nn1 -10.9%, CCn1ccc2cc(S(=O)(=O)N3CCCN(C(=O)Nc4cccc(SC)c4)CC3)ccc21 -28.9%, CCCNC(=O)C1CCN(C(=O)N2CC(C)Oc3ccccc32)CC1 (stereo unspecified) 3.08%, Cc1ccc(CNC(=O)C2CCC(CNS(=O)(=O)c3ccc(C)cc3)CC2)cc1 (stereo unspecified) -5.94%, CCCCN(C)S(=O)(=O)c1ccc(NC2=NS(=O)(=O)c3ccccc32)cc1 -21.5%, Cc1ccc(-n2nc3c(N4CCC(C(=O)NC5CCCCC5)CC4)nnc(C)c3c2C)cc1 -16%, Cc1cc2oc(C(=O)Nc3ccc(S(=O)(=O)N4CCC(C)CC4)cc3)cc(=O)c2cc1C -6.24%, COc1ccc(-n2ncc(C(=O)N3CCN(C(=O)c4ccco4)CC3)c2C2CCN(C(=O)OC(C)(C)C)CC2)cc1 17.1%, COc1ccc(-c2ccc(CNCCCSc3nnnn3C)o2)cc1Cl -15.8%, COc1ccc(NC(=O)c2c(NCc3ccc(OC)c(OC)c3OC)sc3c2CCC3)c(OC)c1 -16%, Cc1ccc(N(C)S(=O)(=O)c2ccc(-c3coc(C)n3)cc2)cc1 -12.5%, Cc1cccc(-c2noc(-c3ccc(NCc4ccccc4)c([N+](=O)[O-])c3)n2)c1 13%, O=C(O)CCc1ccc(NCc2cccc(Oc3ccccc3)c2)cc1 -7.89%, Cc1ccc(NC(=O)CN2C(=O)COc3ccc(S(=O)(=O)N4CCOCC4)cc32)cc1N(C)C -4.15%, CC1=C(C(N)=O)C(c2cccc(Br)c2)n2nc(SCc3ccccc3Cl)nc2N1 (stereo unspecified) -5.52%, Cc1cc(C)c2oc(-c3ccc(NC(=O)COc4ccccc4C)cc3)nc2c1 39.9%, Fc1ccc(CSc2nncn3c2cc2occc23)c(Cl)c1 -6.7%, COc1cc(C2C(C(=O)Nc3ccc(Cl)cc3)=C(C)Nc3nc(SC)nn32)cc(OC)c1OC (stereo unspecified) -7.85%, Cc1nn(CC(=O)NCCc2ccccc2)c(=O)c2nn(-c3ccccc3)c(C)c12 -0.547%, COc1cc(CN(C(=O)Nc2cccc(Cl)c2)c2ccccn2)cc(OC)c1OC -2.2%, COC(=O)c1nnn(CC(=O)Nc2c(C)cccc2C)c1N -13.9%, Cc1cc2nc3c(=O)[nH]c(=O)nc-3n(C[C@H](O)[C@H](O)[C@H](O)CO)c2cc1C 2.91% [at 25.2 µM], Cc1ccc(C(=O)NCC(c2cccs2)S(=O)(=O)c2ccccc2)cc1C (stereo unspecified) -18.7%, CC(C)Nc1nc2c(S(=O)(=O)c3cccc(Cl)c3)nnn2c2ccsc12 0.407%, CC(C)CCNC(=O)c1ccc2nc(CCc3ccccc3)oc2c1 29.5%, CC(C)c1ccc(S(=O)(=O)N2CCN(CC(=O)Nc3ccccc3C(F)(F)F)CC2)cc1 -0.0923%, CCOC(=O)c1c(C)oc2nc(C)nc(NCCc3ccc(OC)c(OC)c3)c12 0.986%, CCCCC(CC)CNC(=O)CCCCn1c(=O)[nH]c2ccsc2c1=O (stereo unspecified) -6.95%, COC(=O)c1sc(N2C(=O)c3oc4ccc(C)cc4c(=O)c3C2c2ccc(O)c(OC)c2)nc1C (stereo unspecified) -8.11%, COc1ccc(CCNc2nc(SCc3ccccc3F)nc3ccccc23)cc1OC -6.77%, COC(=O)c1ccc(C(=O)OC)c(NC(=O)c2c(-c3ccccc3)noc2C)c1 -22.6%, Cc1csc2nc(COc3ccc(NC(=O)C(C)C)cc3)cc(=O)n12 31%, CCOC(=O)Cc1c(C)nc2cc(-c3ccc(C(C)(C)C)cc3)nn2c1C -8.81%, Cc1ccc(NC(=O)c2c3c(nc4ccccc24)C(=O)N(C2CCCCC2)C3)cc1F -9.95%, C=CCc1ccccc1OCc1nc2ccc(C)cc2[nH]1 -25%, Cc1ccccc1NC(=O)CC1NCCNC1=O (stereo unspecified) -0.0566%, COc1ccc(-n2ncc(C(=O)N3CCN(C4CCCCC4)CC3)c2C2CCN(C(=O)OC(C)(C)C)CC2)cc1 2.05%, Cn1c(=O)n(CC(=O)O)c(=O)c2c1nc1n2CCCN1c1ccc(Cl)cc1 -1.51%, CCOC(=O)c1c(NC(=O)CSc2nc(-c3ccc(OC)cc3)cc(C(F)(F)F)n2)sc(C)c1C -6.86%, CCN(CC)S(=O)(=O)c1ccc2c(c1)c(=O)c(C(=O)NCCc1ccccc1)cn2C -1.55%, COc1ccc(C2CC(=O)c3cnc4c(-c5ccc(F)cc5)c(C)nn4c3C2)cc1OC (stereo unspecified) -1.45%
